Laboratory results published in PubChem BioAssay (NCATS).
The inconclusive results got no clear call from the source; some entries with a clear call stand among them for comparison. A call without a number means that no potency is given here. For some assays here: A potency beside an inconclusive call is a rough fit, not a confirmed value. Activity calls are given as the source filed them. Unless noted, calls come from the whole dose curve; as a rule, active = well fitted curve in the direction sought with a large enough effect; inconclusive = small, poorly fitted or top-dose-only effect, or another doubt; inactive = no such curve, though single readings can be large; an effect the other way counts as inactive or inconclusive.

Tested on: not listed separately
Assay: MultiTox-Fluor Cytotoxicity Assay - LYMP1-002 - Dead Cells (AID 960); note: nearly all actives have a fitted effect of over 60% in size; note: potency is the fitted concentration of half-maximal effect;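 for cytotoxicity (dead cells): cells exposed to compound for 16 h at 37 °C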
Conditions: LYMP1-002 lymphoblastoid cells, dead-cell protease fluorescence; cytotoxicity (dead cells): at 46.1 µM (top of the series)
Procedure, shortened: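 Concentration-dependent increases in membrane-leaked protease activity are quantified in LYMP1-002 cells after 16 hr treatment; values are normalized against DMSO and tetraoctylammonium bromide (15 uM) controls and AC50 derived by Hill modeling.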
Tags give direction and shape of the fitted curve.

Structure (SMILES) | Potency
CC(C)S | inactive
O=C=Nc1ccc(Cc2ccc(N=C=O)cc2)cc1 | inconclusive: 12.6 µM [cytotoxic, partial curve, poor fit]
CCCCCCN | inconclusive: 12.6 µM [cytotoxic, partial curve, poor fit]
Cc1ccc2ccc3cccc4ccc1c2c34 | inconclusive: 20 µM [cytotoxic, partial curve, poor fit]

Tested on: not listed separately
Assay: Cell Viability - LYMP2-014 (AID 983);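 note: cells exposed to compound for 24 h at 37 °C; nearly all actives have a fitted effect of over 50% in size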
Conditions: LYMP2-014 lymphoblastoid cells, viability qHTS; series mostly up to 92.2 µM
Procedure, shortened: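 Quantitative HTS in lymphoblastoid cells: 24 hr compound exposure, then CellTiter-Glo ATP luminescence. Positive control was tetraoctylammonium bromide, 6.4pM to 92 uM.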

Structure (SMILES) | Potency
Cc1ccc2ccccc2c1[N+](=O)[O-] | inactive
CCCCNCC | inactive
CC(=O)Nc1ccc(N)cc1 | inactive
c1ccc(COCc2ccccc2)cc1 | inactive

Biological target: Bile acid receptor (Homo sapiens) (UniProt Q96RI1)
Assay: qHTS assay for small molecule antagonists of farnesoid X receptor signaling (AID 588526; calls by dose curve; note: potency is the fitted concentration of half-maximal effect)
Conditions: HEK293T FXR-UAS-bla, beta-lactamase ratio, antagonist mode; activity change, negative = inhibition: at 76.7 µM (top of the series)
Procedure, shortened: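 Antagonist mode: titrated compounds tested against chenodeoxycholic acid stimulation (normalized to 50 uM CDCA and DMSO) in GeneBLAzer HEK293T cells for 16 h. Beta-lactamase read by CCF4 fluorescence; IC50 from Hill fits.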

Structure (SMILES) | Potency | activity change, negative = inhibition
CCCCOC(=O)COc1ccc(Cl)cc1Cl | inactive | 
O=C=Nc1ccc(Cc2ccc(N=C=O)cc2)cc1 |  | inconclusive: -5.79%
Cc1ccc(Cl)cc1 | inconclusive: 0.0501 µM [activator, full curve, poor fit] | 
CCCCCCc1ccc(-c2ccc(C#N)cc2)cc1 |  | inconclusive: -24.4%
Cc1ccc2ccc3cccc4ccc1c2c34 | active: 44.7 µM | 
Cc1c(N)cccc1Cl | inactive | 
